Assay [1] has as its target T1, Serine/threonine-protein kinase Nek3 (Homo sapiens) (UniProt P51956).
T1 sequence (whole entry): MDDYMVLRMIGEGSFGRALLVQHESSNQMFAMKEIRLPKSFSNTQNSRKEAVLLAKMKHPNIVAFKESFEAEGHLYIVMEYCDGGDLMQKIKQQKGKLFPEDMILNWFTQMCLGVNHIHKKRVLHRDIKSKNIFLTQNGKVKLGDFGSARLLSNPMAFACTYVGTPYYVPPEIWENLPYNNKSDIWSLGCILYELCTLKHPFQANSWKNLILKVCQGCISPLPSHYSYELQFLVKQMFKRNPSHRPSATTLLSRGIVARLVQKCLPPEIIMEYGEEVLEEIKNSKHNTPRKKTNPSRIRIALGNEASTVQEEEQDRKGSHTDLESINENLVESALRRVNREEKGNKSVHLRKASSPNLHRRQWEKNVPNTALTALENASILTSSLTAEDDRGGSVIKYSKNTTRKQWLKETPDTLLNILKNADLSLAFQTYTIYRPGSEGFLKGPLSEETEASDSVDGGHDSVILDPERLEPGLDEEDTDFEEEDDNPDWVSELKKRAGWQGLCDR
Put plainly: Inhibition of NEK3 (unknown origin) at 1 uM relative to control.

The target in assay [2] is T2, Serine/threonine-protein kinase Nek5 (Homo sapiens) (UniProt Q6P3R8).
T2 sequence (whole entry): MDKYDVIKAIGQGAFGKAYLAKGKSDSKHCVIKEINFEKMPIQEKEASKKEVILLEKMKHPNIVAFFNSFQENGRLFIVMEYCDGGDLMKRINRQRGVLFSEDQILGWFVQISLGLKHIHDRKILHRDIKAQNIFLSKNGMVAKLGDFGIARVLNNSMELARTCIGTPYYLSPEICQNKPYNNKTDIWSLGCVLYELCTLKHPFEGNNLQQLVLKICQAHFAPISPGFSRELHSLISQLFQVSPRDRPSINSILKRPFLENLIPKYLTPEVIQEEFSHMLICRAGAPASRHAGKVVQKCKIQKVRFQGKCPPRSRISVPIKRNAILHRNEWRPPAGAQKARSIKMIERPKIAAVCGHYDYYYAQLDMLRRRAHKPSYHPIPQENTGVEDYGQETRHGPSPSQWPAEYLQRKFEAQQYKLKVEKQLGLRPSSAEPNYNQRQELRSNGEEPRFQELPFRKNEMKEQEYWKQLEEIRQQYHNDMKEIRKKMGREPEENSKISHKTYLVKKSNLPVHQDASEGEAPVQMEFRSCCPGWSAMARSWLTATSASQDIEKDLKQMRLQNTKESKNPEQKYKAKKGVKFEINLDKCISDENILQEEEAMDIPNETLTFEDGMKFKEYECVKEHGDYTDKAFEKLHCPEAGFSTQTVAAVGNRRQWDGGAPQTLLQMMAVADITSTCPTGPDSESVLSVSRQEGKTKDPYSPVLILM
Nature of the assay: Inhibition of NEK5 (unknown origin) at 1 uM relative to control.

Assay [3] concerns the target Serine/threonine-protein kinase Nek7 (Homo sapiens) (UniProt Q8TDX7). Put plainly: Inhibition of NEK7 (unknown origin) at 1 uM relative to control.
In assay [4] the target is T3, Serine/threonine-protein kinase Nek9 (Homo sapiens) (UniProt Q8TD19).
T3 sequence (whole entry): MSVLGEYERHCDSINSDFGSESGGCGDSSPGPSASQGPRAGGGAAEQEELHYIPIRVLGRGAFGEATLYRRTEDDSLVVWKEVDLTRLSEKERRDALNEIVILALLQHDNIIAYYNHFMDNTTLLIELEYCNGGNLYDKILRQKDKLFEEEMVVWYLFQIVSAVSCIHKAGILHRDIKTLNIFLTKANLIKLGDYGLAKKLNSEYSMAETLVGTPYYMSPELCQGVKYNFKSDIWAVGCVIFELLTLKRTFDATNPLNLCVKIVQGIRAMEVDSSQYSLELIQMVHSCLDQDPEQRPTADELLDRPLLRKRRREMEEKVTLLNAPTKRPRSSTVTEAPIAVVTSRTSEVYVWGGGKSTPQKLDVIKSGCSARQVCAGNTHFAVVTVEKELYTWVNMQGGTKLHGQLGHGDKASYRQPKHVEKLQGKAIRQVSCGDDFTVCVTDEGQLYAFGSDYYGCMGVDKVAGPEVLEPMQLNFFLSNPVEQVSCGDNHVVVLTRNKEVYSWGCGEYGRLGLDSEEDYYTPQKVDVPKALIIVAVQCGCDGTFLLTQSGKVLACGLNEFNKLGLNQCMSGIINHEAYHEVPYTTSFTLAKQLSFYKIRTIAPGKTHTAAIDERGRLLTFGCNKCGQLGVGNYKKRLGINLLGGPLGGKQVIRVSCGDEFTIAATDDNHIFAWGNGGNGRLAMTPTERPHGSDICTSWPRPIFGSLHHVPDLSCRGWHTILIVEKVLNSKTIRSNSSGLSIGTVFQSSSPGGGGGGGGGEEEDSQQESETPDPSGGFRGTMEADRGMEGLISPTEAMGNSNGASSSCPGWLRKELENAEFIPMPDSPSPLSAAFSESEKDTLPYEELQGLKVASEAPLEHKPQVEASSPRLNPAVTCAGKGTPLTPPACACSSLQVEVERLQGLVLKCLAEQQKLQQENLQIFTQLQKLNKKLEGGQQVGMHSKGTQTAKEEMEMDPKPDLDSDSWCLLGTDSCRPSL
Nature of the assay: Inhibition of NEK9 (unknown origin) at 1 uM relative to control.

The record followed here is ChEMBL document CHEMBL5252509, “In depth analysis of kinase cross screening data to identify chemical starting points for inhibition of the Nek family of kinases” (Medchemcomm, 2018).

Chain of UniProt Q8TDX7 (Q8TDX7 whole entry, looked up): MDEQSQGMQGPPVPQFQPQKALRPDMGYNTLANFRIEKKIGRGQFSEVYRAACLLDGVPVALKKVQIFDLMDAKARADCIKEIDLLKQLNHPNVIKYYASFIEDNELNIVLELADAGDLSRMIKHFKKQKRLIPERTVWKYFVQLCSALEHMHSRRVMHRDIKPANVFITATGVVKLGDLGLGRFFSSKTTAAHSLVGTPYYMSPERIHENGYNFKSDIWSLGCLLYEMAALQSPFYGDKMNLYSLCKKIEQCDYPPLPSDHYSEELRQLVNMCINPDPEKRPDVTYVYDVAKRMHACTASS

For `O=C1NC(=O)C(c2ccc(Cl)cc2)=C1Nc1cccc(O)c1`, the inhibition in assay [1] was determined as 11%; in assay [2], 0%; in assay [3] it was 10%; in assay [4], 0%.

As to `O=C1NC(=O)C(c2ccccc2)=C1Nc1cc(Cl)c(O)c(Cl)c1`, the inhibition in assay [1], in assay [2], in assay [3] and in assay [4] was 0% throughout.

On to `O=C1NC(=O)C(c2ccccc2)=C1Nc1ccc(Cl)c(C(=O)O)c1`, for which the inhibition came to 10% in assay [1], 4% in assay [2], 0% in assay [3] and 36% in assay [4].

Consider `O=C1NC(=O)C(c2ccccc2Cl)=C1Nc1ccccc1`, for which the inhibition is 0% in assay [1], 0% in assay [2], 1% in assay [3] and 14% in assay [4].

Consider `O=C1NC(=O)C(c2ccccc2Cl)=C1Nc1cccc(C(=O)O)c1`, for which the inhibition in assay [1] turned out to be 7%; in assay [2], 2%; in assay [3], 0%; in assay [4], 26%.

Turning to `O=C1NC(=O)C(c2ccccc2)=C1Nc1ccccc1`, the inhibition in assay [1] was found to be 21%; in assay [2], 0%; in assay [3], 0%; in assay [4], 0%.

With `O=C1NC(=O)C(c2ccc(Cl)cc2)=C1Nc1ccc(O)c(Cl)c1`, the inhibition in assay [1] amounted to 29%; in assay [2] it was 0%; in assay [3], 0%; in assay [4] it was 0%.

On to `O=C1NC(=O)C(c2ccc(Cl)cc2)=C1Nc1cccc(C(=O)O)c1`, for which the inhibition in assay [1] stood at 17%; in assay [2], 17%; in assay [3], 0%; in assay [4], 0%.

The inhibition is how much of the control response was suppressed. High values mean a response far below the control, low ones a response near the control.
